About 25,000 (6.9%) of roughly 360,000 compounds were called active. Inconclusive results, whose numbers are uncertain, are shown with a selection of clear calls. The call rests on the fitted dose curve; in most records, active means well fitted inhibition curve with a large enough effect; inconclusive means small, poorly fitted or top-dose-only effect; inactive means flat fitted curve, though single readings scatter. A potency beside an inconclusive call is a rough fit, not a confirmed value.
Each compound was assayed against Luciferin 4-monooxygenase (Photinus pyralis) (UniProt P08659) (assay: qHTS profiling assay for firefly luciferase inhibitor/activator using purifed enzyme and Km concentrations of substrates (counterscreen for miR-21 project)). Conditions: purified FLuc, luminescence inhibition; series mostly up to 57.5 µM.
How it was run: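 Biochemical qHTS of compounds, final roughly 60 µM downward over six points, against 10 nM purified firefly luciferase using Km concentrations of substrates (10 uM D-luciferin, 10 uM ATP) in Tris acetate pH 7.5 buffer; luminescence output.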
Further: nearly all actives have a fitted effect of over 55% in size.
Potency means the concentration at half of the fitted maximal effect; tags describe the fitted curve by direction and shape.

Sequence of UniProt P08659 (P08659 whole entry, looked up): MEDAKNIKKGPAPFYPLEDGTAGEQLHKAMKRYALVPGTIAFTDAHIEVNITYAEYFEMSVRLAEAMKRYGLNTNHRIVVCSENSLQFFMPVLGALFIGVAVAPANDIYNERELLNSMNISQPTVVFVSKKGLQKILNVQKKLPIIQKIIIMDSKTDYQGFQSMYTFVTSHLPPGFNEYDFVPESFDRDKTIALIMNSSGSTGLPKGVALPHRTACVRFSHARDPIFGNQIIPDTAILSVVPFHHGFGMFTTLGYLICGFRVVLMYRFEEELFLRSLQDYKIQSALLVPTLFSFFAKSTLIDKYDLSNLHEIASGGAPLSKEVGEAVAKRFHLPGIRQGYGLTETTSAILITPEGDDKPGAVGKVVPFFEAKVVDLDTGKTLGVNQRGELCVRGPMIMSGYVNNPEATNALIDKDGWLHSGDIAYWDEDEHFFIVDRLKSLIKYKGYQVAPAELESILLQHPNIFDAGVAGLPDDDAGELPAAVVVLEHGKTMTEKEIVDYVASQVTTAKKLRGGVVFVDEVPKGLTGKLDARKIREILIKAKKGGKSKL

Compound	Potency
Cc1ccccc1C(=O)Nc1ccc(-c2nc3ccc(C(=O)c4ccccc4)cc3[nH]2)cc1	inconclusive: 9.53 µM [inhibitor, partial curve]
Cc1cc([N+](=O)[O-])ccc1NC(=O)c1cccc(NC(=O)C(C)C)c1	inconclusive: 21.3 µM [inhibitor, partial curve]
CN(Cc1ccccc1)C(=O)c1ccc(NC(=O)Cc2cccc(NC(=O)C3CCCN(C(=O)C4CCC4)C3)c2)cc1 (stereo not given)	inactive
N#Cc1nc(COc2ccc(Br)cc2)oc1N1CCCCCC1	inconclusive: 15.1 µM [inhibitor, partial curve, poor fit]
CC(=O)Oc1ccc2cc(-c3ccccc3)c(=O)oc2c1	active: 2.39 µM
COc1ccc(N=C2NC(=O)/C(=C/c3ccco3)S2)cc1	inconclusive: 4.26 µM [inhibitor, partial curve, poor fit]
CCCC(=O)Nc1ccc(N2CCCCC2)cc1	inconclusive: 19 µM [inhibitor, partial curve]
Cc1ccc(C(=O)NCc2ccc(N(C)C)cc2)cc1NC(=O)c1nsc2ccccc12	inactive
O=C1CCCC(O)=C1N=Nc1cccc(C(=O)O)c1	active: 8.49 µM
COc1cc(/C=N/N=C2/NC(=O)C(Cc3ccccc3)S2)ccc1O (stereo not given)	active: 2.39 µM
O=C(NC1CC1)c1cc2ccccc2o1	inconclusive: 26.9 µM [inhibitor, partial curve, poor fit]
NC(=O)c1ccc(N=C2C(=O)Nc3ccc([N+](=O)[O-])cc32)cc1	inconclusive: 21.3 µM [inhibitor, partial curve, poor fit]
COc1cc(C(=O)Nc2ccc(O)cc2)ccc1OC(C)=O	inconclusive: 23.9 µM [inhibitor, single point]
Cc1c(CC(=O)O)c(=O)oc2cc(OCc3ccc(Br)cc3)ccc12	active: 10.7 µM
O=C(COc1ccc(NC(=O)c2ccccc2)cc1)c1ccccc1	active: 2.13 µM
COc1ccc(-c2cc(-c3cc(C)ccc3O)[nH]n2)cc1	active: 12 µM
O=C(/C=C/c1ccccc1Cl)Nc1ccc2c(c1)C(=O)NC2=O	inconclusive: 10.7 µM [inhibitor, partial curve, poor fit]
O=C(/C=C/c1ccccc1)NC(=S)Nc1ncccn1	active: 16.9 µM
O=C(Nc1nc(-c2ccccc2)cs1)c1ccccc1NS(=O)(=O)c1ccc(F)cc1	inconclusive: 23.9 µM [inhibitor, single point]
O=C(N/N=C/c1ccc(O)cc1)c1ccc(NC(=O)c2ccccc2Br)cc1	inconclusive: 19 µM [inhibitor, partial curve, poor fit]
CCCC(=O)Nc1ccc(NC(=O)c2cccc(OC)c2)nc1	active: 12 µM
COc1ccc(N)c2c1C(=O)c1ccccc1C2=O	active: 23.9 µM
COC(=O)c1sccc1NC(=O)c1ccc(OC)cc1OC	inconclusive: 23.9 µM [inhibitor, single point]
Nc1nnc(SCCOc2ccc(Br)cc2)s1	inconclusive: 26.9 µM [inhibitor, single point]
Cc1cc(F)ccc1S(=O)(=O)NCC(c1ccco1)S(=O)(=O)c1cccs1 (stereo not given)	inactive

Compound	Potency
Cc1cc(C)c(S(=O)(=O)N/N=C/c2ccc3c(c2)OCO3)c(C)c1	inactive
C/C(CC(=O)Nc1ccccn1)=N\NC(=O)c1ccc2ccccc2c1	inconclusive: 37.9 µM [inhibitor, partial curve, poor fit]
O=C(N/C=C\c1ccccc1)NCc1ccc(Cl)cc1	inactive
COc1ccc(CNc2oc(-c3ccccc3)nc2C#N)cc1	inconclusive: 26.9 µM [inhibitor, single point]
CC(=O)c1c(C)nc2nc(-c3ccccc3)nn2c1C	inconclusive: 23.9 µM [inhibitor, partial curve]
COc1ccc(CCNC(=O)c2csc3c2CCCC3)cc1	inconclusive: 37.9 µM [inhibitor, single point]
CC1=NN(c2nc(-c3ccccc3)cs2)C(=O)C1	inconclusive: 16.9 µM [inhibitor, partial curve]
N#Cc1c(-c2ccccc2)nc(SCC(=O)NC2CCCCC2)[nH]c1=O	inconclusive: 16.9 µM [inhibitor, partial curve]
Cc1nn(-c2ccccc2)nc1C(=O)Nc1ccc2c(c1)OCCO2	inconclusive: 30.1 µM [inhibitor, partial curve, poor fit]
Cc1ccnc2nc(C(=O)Nc3nc4ccccc4s3)nn12	active: 10.7 µM
Cc1ccc(/C=N/NC(=O)c2cccs2)o1	active: 16.9 µM
O=C(COc1cccc(Cl)c1)Nc1ccc2c(c1)CCC2	inconclusive: 19 µM [inhibitor, partial curve]
O=C(Nc1ccc(-c2n[nH]c(=S)o2)cc1)c1ccccc1Cl	active: 10.7 µM
Cc1ccc(C(=O)OCC(=O)N(C)C2CCS(=O)(=O)C2)cc1[N+](=O)[O-] (stereo not given)	inactive
Cc1c(NC(=O)c2cccnc2)c(=O)n(-c2ccccc2)n1C	inactive
CCCOc1ccc(C(CC(=O)O)NC(=O)CC(c2ccccc2)c2ccccc2)cc1 (stereo not given)	inconclusive: 23.9 µM [inhibitor, partial curve, poor fit]
CCOC(=O)c1sc(NC(=O)Nc2ccc(Cl)cc2)nc1C	active: 2.69 µM
O=C(NNC(=O)c1ccccc1OCc1ccccc1)c1ccccc1F	active: 21.3 µM
C#CCOC(=O)CCCC(=O)NCCCCCCCC	inconclusive: 33.8 µM [inhibitor, partial curve, poor fit]
O=C(c1ccco1)N1CCN(Cc2nc3ccc([N+](=O)[O-])cc3c(=O)n2-c2ccccc2F)CC1	inactive
Cc1ccccc1C(=O)O/N=C(\N)c1ccncc1	active: 4.26 µM
Cc1cc(NC(=O)c2n[nH]c(=O)c3ccccc23)ccc1Br	inactive
O=C(COC(=O)CCN=C1NS(=O)(=O)c2ccccc21)NNC(=O)c1ccccc1	inactive
CCCc1nn2c(=O)cc(COC(=O)c3cccc(NC(=O)COc4ccccc4C)c3)nc2s1	inconclusive: 12 µM [inhibitor, partial curve]
COc1ccccc1N1CCN(c2ncc(C(=O)N3CCN(c4cccc(Cl)c4)CC3)c3ccccc23)CC1	inactive

Compound	Potency
CCCCCCC(=O)N(O)C1CC(=O)N(c2ccc(F)cc2)C1=O (stereo not given)	inconclusive: 21.3 µM [inhibitor, partial curve, poor fit]
Cn1c2c(c(=O)n(C)c1=O)C(C(F)(F)F)(C(F)(F)F)N=C(c1ccc(Cl)cc1)N2	inactive
O=C(NC1CCCCCCC1)c1cc(F)c(F)cc1Cl	inconclusive: 23.9 µM [inhibitor, single point]
COc1ccc2nc(-c3cccc(N)c3)[nH]c2c1	active: 2.39 µM
O=C(Nc1ccc2nc(-c3cccnc3)[nH]c2c1)C1CCCCC1	active: 12 µM
O=c1c2ccccc2nc2sc3ccccc3n12	active: 5.36 µM
O=C(Cn1cc(S(=O)(=O)Cc2cccc(Cl)c2)c2ccccc21)NCCc1ccccc1	inactive
CCOC(=O)c1cc2c(C)n(-c3ccc(OCC)cc3)c(C)c2cc(C(=O)OCC)c1=O	inactive
CCOC(=O)N1CCC(NC(=O)C(NC(=O)C2CCC(C)CC2)C(C)CC)CC1 (stereo not given)	inactive
CCCc1c(C(=O)Nc2ccc(OC)cc2)cnn1-c1ccccc1	inconclusive: 23.9 µM [inhibitor, single point]
Cc1ccc(NC(=O)/C(C#N)=C/c2ccc(C(C)C)cc2)cc1C	inactive
Nc1cc(S(=O)(=O)Nc2cc(Cl)ccc2Cl)ccc1N1CCOCC1	inconclusive: 37.9 µM [inhibitor, partial curve, poor fit]
O=C(CNC(=O)c1ccccc1F)NCCN1C(=O)S/C(=C\c2ccccc2Cl)C1=O	inconclusive: 37.9 µM [inhibitor, single point]
CCOC(=O)c1c(C)[nH]c(C)c1C(=O)COC(=O)c1nc2nccc(C)n2n1	inactive
Cc1nc(Nc2ccc(Cl)cc2Cl)sc1C(=O)Nc1ccccc1	active: 16.9 µM
O=C(N/N=C/c1ccc(Cl)c([N+](=O)[O-])c1)c1cc(-c2ccccc2)nc2ccccc12	inconclusive: 4.26 µM [inhibitor, full curve]
CSc1ccc(N=Nc2c(C)[nH]n(C)c2=O)cc1	active: 19 µM
COc1ccccc1NC(=O)Nc1ccc(C)cn1	inconclusive: 9.53 µM [inhibitor, partial curve]
COc1cc(-c2csc(NC3CCCCC3)n2)cc(OC)c1OC	inconclusive: 37.9 µM [inhibitor, partial curve, poor fit]
CCN(CC(=O)Nc1sc2c(c1C#N)CCC(C)C2)CC(=O)NC1CCS(=O)(=O)C1 (stereo not given)	inconclusive: 26.9 µM [inhibitor, partial curve]
CSCCC(NC(=O)c1ccc(Cl)cc1Cl)C(=O)OC(C)C(=O)NCc1ccco1 (stereo not given)	inconclusive: 37.9 µM [inhibitor, partial curve, poor fit]
CCCC(=O)Nc1nc(C)c(-c2csc(Nc3ccc(Cl)cc3)n2)s1	inconclusive: 37.9 µM [inhibitor, single point]
COC(=O)c1scc(-c2ccc(C)cc2)c1S(=O)(=O)Nc1cc(OC)c(OC)c(OC)c1	inactive
CC(=O)c1ccc(S(=O)(=O)N(C)CCCC(=O)N(C)Cc2ccccc2F)cc1	inactive
Cc1ccc(Cn2ccc(NC(=O)c3noc4c3CCCCC4)n2)cc1	inconclusive: 19 µM [inhibitor, partial curve]

From PubChem BioAssay AID588342 (National Center for Advancing Translational Sciences (NCATS), 2011)
